# Results from PubChem BioAssay AID488969 (Vanderbilt High Throughput Screening Facility, 2010).
# The full ranking holds about 110,000 compounds; the median of “z-score” is about -0.1, and the highest 2% start at about 2. The list shows a part of the results. The source made the active and inactive calls.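 How the source made its calls: active means z-score in the third read window above 3 or below -3; inactive means the rest.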
# Target: Metabotropic glutamate receptor 8 (Rattus norvegicus) (UniProt P70579)
# Assay: mGluR8 Gi/Go-coupled signaling modulation – cell-based, rat, thallium flux, HTS, primary screen (AID 488969)
# Settings: HEK293 rat mGluR8, GIRK (G protein-gated inwardly rectifying potassium channel) thallium flux, FluoZin2; at 10 µM; stronger effect = higher value; submaximal glutamate (EC20) added with thallium
# UniProt P70579, sequence (P70579 whole entry, looked up): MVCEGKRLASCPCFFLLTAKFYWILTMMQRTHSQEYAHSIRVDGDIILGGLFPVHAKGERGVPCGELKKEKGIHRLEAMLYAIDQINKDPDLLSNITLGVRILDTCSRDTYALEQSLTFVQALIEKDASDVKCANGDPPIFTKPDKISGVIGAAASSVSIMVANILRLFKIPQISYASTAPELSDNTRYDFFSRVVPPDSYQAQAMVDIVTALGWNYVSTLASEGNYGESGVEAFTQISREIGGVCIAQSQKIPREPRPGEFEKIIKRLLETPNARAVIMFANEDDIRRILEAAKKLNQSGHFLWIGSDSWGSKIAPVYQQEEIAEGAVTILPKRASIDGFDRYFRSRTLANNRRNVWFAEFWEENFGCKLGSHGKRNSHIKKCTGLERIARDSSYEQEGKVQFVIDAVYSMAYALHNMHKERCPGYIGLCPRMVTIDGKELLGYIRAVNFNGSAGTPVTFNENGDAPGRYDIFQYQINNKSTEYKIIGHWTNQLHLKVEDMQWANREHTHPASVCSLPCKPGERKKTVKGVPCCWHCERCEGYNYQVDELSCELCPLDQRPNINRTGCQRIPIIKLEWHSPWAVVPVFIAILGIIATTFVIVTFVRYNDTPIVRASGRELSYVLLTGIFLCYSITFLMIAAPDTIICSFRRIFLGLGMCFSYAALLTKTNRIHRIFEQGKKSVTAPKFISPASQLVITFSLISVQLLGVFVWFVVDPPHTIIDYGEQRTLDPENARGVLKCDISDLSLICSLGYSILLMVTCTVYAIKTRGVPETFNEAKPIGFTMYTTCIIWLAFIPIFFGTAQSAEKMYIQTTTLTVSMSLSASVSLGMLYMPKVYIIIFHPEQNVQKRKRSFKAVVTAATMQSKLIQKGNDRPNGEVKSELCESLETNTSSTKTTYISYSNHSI
row,Compound,z-score
1,O=C(Nc1ccccc1)C(Cc1ccccc1)NC(=O)C12CC3CC(CC(C3)C1)C2 (stereo not drawn),0.0454
2,CCCn1nc([N+](=O)[O-])c(C(C#N)c2nc3ccccc3s2)c(Cl)c1=O (stereo not drawn),-2.49
3,COc1ccc2c(c1OC)C(=O)N1c3ccccc3C(=O)N(c3ccccc3)C21 (stereo not drawn),-0.451
4,CCN1C(=O)CC(C(=O)Nc2ccc(F)cc2)SC1=Nc1cccc(OC)c1 (stereo not drawn),-0.764
5,COC(=O)CCC(=O)Nc1ccc(C)cc1OC(=O)CCC(=O)OC,0.273
6,COc1cc(/C=N/NC(=O)c2nc(C)cc(C)n2)ccc1O,-0.127
7,Cc1cc(C)n(-c2ccc(C(=O)Nc3cc(S(=O)(=O)N(C)C)ccc3Cl)cc2)n1,-0.372
8,CC1CCCC2(C1)NC(=S)c1c(sc3c1CCCC3)N2 (stereo not drawn),1.1
9,Cc1cc(C)c(OCCCCCNCCO)c(C)c1,1.43
10,CN(CC(=O)Nc1ccccc1Br)Cc1nc2ccccc2c(=O)[nH]1,0.733
11,O=C(CN1CCN(S(=O)(=O)c2ccccc2)CC1)Nc1ccccc1C(=O)c1ccccc1,-0.342
12,O=C(NCCC1=CCCCC1)C1CCCN(c2nc3ccccc3o2)C1 (stereo not drawn),-1.1
13,COc1ccc(/C=N/NC(=O)C(=O)N2CCCC2)cc1OC,-0.402
14,Cc1ccc(NC(=O)N2CCOCC2)c(C)c1,0.386
15,CCn1c(=O)n(CC(=O)N(C)Cc2ccccc2)c(=O)c2ccccc21,-0.456
16,CCCc1cc(C(=O)N(C2CCCCC2)C2CCCCC2)no1,0.314
17,O=C(COC(=O)c1cnccn1)c1ccc(OC(=O)c2ccccc2)cc1,0.111
18,CC1=CC(C)(C)N2C(=O)C3(C(C#N)=C(N)Oc4cc(C)oc(=O)c43)c3cc(C)cc1c32 (stereo not drawn),-0.282
19,CCn1c(=N)n(CCOc2ccc(OC)cc2)c2ccccc21,-0.158
20,CCOc1nc(N2CCOCC2)nc(C)c1[N+](=O)[O-],-0.604
21,NC(=O)c1ccccc1N/C=C/C(=O)c1cccs1,-0.0149
22,COc1ccc(N2CCN(C(CNS(=O)(=O)c3cc(F)ccc3F)c3cccnc3)CC2)cc1 (stereo not drawn),-0.0134

row,Compound,z-score
1,CCC(=O)Nc1ccc(C(=O)CSc2nnc(-c3ccccc3F)n2CCc2ccccc2)cc1,-1.08
2,O=C(NC(=S)Nc1ccc(S(=O)(=O)Nc2nccs2)cc1)c1ccc(F)c(F)c1,-0.204
3,CC(C)c1c(O)nc(SCCN2CCOCC2)[nH]c1=O,-0.557
4,CCc1ccc2oc(-c3ccc(N)cc3)nc2c1,-0.85
5,CC(CCc1ccccc1)NC(=O)C1CCN(C(=O)c2sccc2-n2cccc2)CC1 (stereo not drawn),-0.67
6,Cc1ccc(CN2C(=O)CCC2C(=O)NC(C)C)cc1 (stereo not drawn),0.893
7,CCN(CC)C(=O)CSc1nc(O)cc(=O)n1C,-0.0847
8,Cc1ccc(-n2c(SCC(=O)NNC(=S)Nc3ccccc3)nc3ccccc3c2=O)cc1,-0.543
9,O=C(CN1C(=O)CCC1=O)NCC12CC3CC(CC(C3)C1)C2,-0.297
10,COc1c(C(=O)Nc2c(C)n(C)n(-c3ccccc3)c2=O)ccc2ccccc12,-0.517
11,CN(Cc1ccccc1)C(=O)COc1cc(=O)n(C)c2ccccc12,0.391
12,Cc1cccc(Cn2c(N(C)Cc3ccccc3)nc3c2c(=O)[nH]c(=O)n3C)c1,-0.525
13,Cc1csc(NC(=O)c2cccc(C)c2C)n1,-0.271
14,Cc1cc(C(=O)NCc2ccc(S(N)(=O)=O)cc2)c(C)o1,-0.0806
15,COc1ccc(-c2ccc(C#N)c(SCC(=O)NCCc3ccccc3)n2)cc1OC,-0.534
16,Brc1ccccc1-c1nnc2sc(-c3ccc4c(c3)OCCO4)nn12,active: -3.43
17,O=c1c2cnn(-c3ccc(F)cc3)c2ncn1Cc1cccnc1,-0.667
18,CCN(CC)C(=O)c1cc2sc3ccccc3c2s1,-0.696
19,Cc1ccc(C)c(N2CCN(C(=O)CC3Sc4ccccc4NC3=O)CC2)c1 (stereo not drawn),-0.141
20,CCOc1ccccc1-c1nc(-c2ccc(NC(=O)Cc3ccccc3OC)cc2)no1,0.714
21,O=C1NC(=O)C2(COC(c3ccccc3Cl)OC2)S1 (stereo not drawn),-0.116
22,COC(=O)c1ccc(C)c(NS(=O)(=O)c2ccc3c(c2)OCCO3)c1,0.875

row,Compound,z-score
1,CCOC(=O)CSc1nc(-c2ccccc2)nc2ccc(F)cc12,-0.404
2,COCCNC(=S)N1C2CCC1CC(NC(=O)NC13CC4CC(CC(C4)C1)C3)C2 (stereo not drawn),-0.144
3,COc1ccc(-c2oc(/N=C/N3CCCC3)c(C#N)c2-c2ccc(OC)cc2)cc1,-0.0141
4,O=C(CN1CCCCC1)Nc1ccc(S(=O)(=O)N2CCOCC2)cc1,-0.0871
5,O=C(NC1CCCCC1)NC1CCN(S(=O)(=O)Cc2ccccc2)CC1,-0.0506
6,COc1ccc(OC)c(S(=O)(=O)N2CCC(C(=O)NC(C)c3ccccc3)CC2)c1 (stereo not drawn),0.0492
7,Cc1ccc(C)c2[nH]c(=O)c(CN(Cc3ccc4c(c3)OCO4)Cc3nnnn3Cc3ccco3)cc12,0.566
8,O=C(NCc1ccco1)c1cnn2c1NC(c1ccccc1)CC2C(F)(F)F (stereo not drawn),-0.927
9,COC(=O)c1cc(OC)c(OC)cc1NC(=O)c1ccc(C)o1,-0.653
10,CC1CN(C(=O)Cc2ccc(-c3ccccc3)cc2)CC(C)O1 (stereo not drawn),0.784
11,Nc1nonc1-n1nncc1-c1ccccc1,0.523
12,Cc1ccc(C(=O)N/C(=C/c2ccc(Cl)cc2)C(=O)NCC2CCCO2)cc1 (stereo not drawn),-0.37
13,C=CCN(CC=C)CC(O)Cn1c2ccccc2c2ccccc21 (stereo not drawn),0.371
14,COc1ccc(OC)c(-c2c[n+](=O)c3c(n2[O-])CCCC3)c1,0.0184
15,CC(C)CC(=O)Nc1ccc(N2CCOCC2)cc1,0.0722
16,Cc1cccn2c(=O)c3cc(C(=O)NCCCN4CCCC4=O)n(C)c3nc12,-0.153
17,CCSc1nc2ccccc2n1CCC(=O)O,-0.625
18,COc1cc(/C=N/OCC(=O)Nc2cc(C)cc(C)c2)ccc1OCc1ccc(Cl)cc1,-0.106
19,CCOc1cc(/C=N/N=C(N)N)ccc1OCc1ccc(Cl)cc1,0.11
20,C=CCn1c(N)nc2ccccc21,1.26
21,CCOC(=O)c1ccc(N/C=C\C(=O)c2cccc(OC)c2)cc1,0.419
22,Cc1cc([N+](=O)[O-])ccc1NCc1cccc2ccccc12,-0.178

row,Compound,z-score
1,CCOC(=O)C1C(=O)NC(N2CCN(c3ccccc3)CC2)=NC1c1ccco1 (stereo not drawn),-0.38
2,Cn1c(C(=O)OC(C(=O)NC2CCCCC2)c2ccncc2)cc2sccc21 (stereo not drawn),-1.25
3,COc1ccc(NC(=O)c2ccc(COCC(F)(F)C(F)F)cc2)cc1OC,-0.242
4,O=C(NCCc1c[nH]c2ccccc12)C1CCN(c2nnc(N3CCCC3=O)s2)CC1,0.757
5,Cc1cc(C(=O)NNC(=O)CCCCC(=O)NNC(=O)c2cc(C)[nH]n2)n[nH]1,-0.204
6,COc1cc(C(=O)Nc2sc(C(=O)N3CCOCC3)c(C)c2C#N)cc(OC)c1OC,0.197
7,CCOC(=O)C1C(=O)NC(c2ccccc2)=NC1c1ccc(F)cc1 (stereo not drawn),-0.221
8,COc1ccc(/C(C)=N/NC(=O)c2nc(C)cc(C)n2)cc1,-0.255
9,CCC(C)c1ccc(O)c(NC(=O)c2ncn[nH]2)c1 (stereo not drawn),-0.374
10,O=C(NCCOc1ccccc1)c1ncn[nH]1,0.26
11,CCCCNC(=O)CC1N=C2c3ccccc3N=C(SCC(=O)Nc3ccc(OC)cc3)N2C1=O (stereo not drawn),-0.38
12,COC(=O)N/N=C1\CCCc2ccccc21,-0.137
13,CC(C)Cc1nc2sc3c(NCc4ccco4)ncnc3c2c2c1COC(C)(C)C2,-0.213
14,c1ccc2c(CNCCN3CCOCC3)cccc2c1,-0.0436
15,COc1ccc(S(=O)(=O)N2Cc3ccccc3CC2C(=O)Nc2ccc3c(c2)OCO3)cc1 (stereo not drawn),-0.22
16,CCOc1cc(CNCCO)cc(Br)c1OCc1ccc(Cl)cc1Cl,1.36
17,Cc1cc(C)c(C(N)=O)c(Nc2cccc(Cl)c2)n1,0.431
18,COc1ccccc1-n1c(CNC(=O)COc2ccccc2)n[nH]c1=S,2.71
19,Cc1ccc(/C=C(\NC(=O)c2ccccc2)C(=O)NCCc2ccccn2)o1,-0.269
20,Cc1ccc(S(=O)(=O)N(C)C)cc1NC(=O)COC(=O)CCC(=O)c1ccc(F)cc1,-0.39
21,Cc1cc(C)c2c(=O)[nH]c(SCC(=O)Nc3ccc(N(C)C)cc3)nc2n1,-0.244
22,COC(=O)c1ccc(CSc2nnc(NC(=O)C3CC(=O)N(c4ccc5c(c4)OCCO5)C3)s2)cc1 (stereo not drawn),0.162

row,Compound,z-score
1,CCC(=O)Nc1ccc(Oc2ccc3c(c2)C(=O)N(c2ccc(O)cc2)C3=O)cc1,0.0337
2,CC(C)C(=O)Nc1cccc(NC(=O)CCN2C(=O)c3ccccc3S2(=O)=O)c1,0.153
3,CC12CN3CC(C)(CN(C1)C3c1ccc(Br)cc1)C2 (stereo not drawn),-0.0896
4,COc1ccc(-c2c(C)n([O-])c(C)c(-c3ccccc3)[n+]2=O)cc1OC,0.56
5,COc1cc(C2=NOC(C(=O)N3CCOCC3)C2)cc(OC)c1OC (stereo not drawn),0.39
6,Cn1c(/C(C#N)=C(\O)c2ccc(S(=O)(=O)N3CCCCC3)cc2)nc2ccccc21,0.135
7,CC(=O)c1cccc(NC(=S)NCCC2=CCCCC2)c1,0.756
8,CCn1nc(C(=O)NNC(=O)COc2ccccc2C)c2ccccc2c1=O,0.345
9,O=C(NCc1ccc(F)cc1)c1ccc(CS(=O)(=O)Cc2ccccc2F)o1,0.438
10,COc1ccc(C(=O)N/N=C2\SCC(=O)N2Cc2ccc3c(c2)OCO3)c(OC)c1,0.801
11,CCCCCCCNC(=O)C1CC(=O)N(C)C(=Nc2ccc(OC)cc2)S1 (stereo not drawn),-0.279
12,CCCn1c(/N=C/c2cc(OC)ccc2O)nc2ccccc21,0.454
13,CC(=O)Nc1ccc(S(=O)(=O)N2CCN(c3cc(C)nc4ccccc34)CC2)cc1,0.498
14,COc1ccc(S(=O)(=O)N2CCC(C(=O)N3CCc4ccccc4C3)CC2)cc1Cl,-0.216
15,CCOC(=O)CSc1nnc(-c2ccccc2)o1,-1.23
16,CCn1c(=O)cc(N2CCC3(CC2)OCCO3)[nH]c1=O,0.0392
17,Cn1cc(S(=O)(=O)CC(=O)Nc2ccc(Br)cc2)c2ccccc21,-0.0267
18,CCNC(=S)NNC(=O)c1ccoc1C,-0.0856
19,CCOC(=O)c1sc(NC(=O)CSc2nccc(C)n2)c(C#N)c1C,-0.249
20,COc1cccc(N2C(=O)C3CC=C(Cl)CC3C2=O)c1 (stereo not drawn),0.379
